# Test results: PubChem BioAssay AID504832 (National Center for Advancing Translational Sciences (NCATS), 2011)
# About 18,000 (5.8%) of roughly 310,000 compounds were called active. Inconclusive means that the source gave no clear call. Such entries were picked first, then a sample of the others. The call rests on the fitted dose curve; in most records, active means well fitted inhibition curve with a large enough effect; inconclusive means small, poorly fitted or top-dose-only effect, or another doubt; inactive means no such curve, though single readings can be large or run the other way. Potencies of inconclusive entries are left out as doubtful fits.
# Experiment: Primary qHTS for delayed death inhibitors of the malarial parasite plastid, 48 hour incubation
# Conditions: P. falciparum luciferase growth in erythrocytes; series mostly up to 28.7 µM; activity change, negative = inhibition: at the top concentration
# How it was run: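 Luciferase-expressing parasites in RBCs, 2% Hct / 0.1% parasitemia final; RPMI 1640 + 0.5% Albumax; 37 C, 5% CO2, one generation; luminescence read-out, lower signal = inhibition.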
# On the % scale 0 is the no-effect control and ±100 the full control effect; potency means the concentration at half of the fitted maximal effect; tags describe the fitted curve by direction and shape.
Structure (SMILES),"activity change, negative = inhibition",Potency
O=C(O)c1cccc(S(=O)(=O)Nc2ccc([N+](=O)[O-])cc2O)c1,inactive: 6.66%,
COc1ccc(-c2cc3nc(C)cc(-c4ccc(OC)cc4)n3n2)cc1,,"inconclusive [inhibitor, partial curve, poor fit]"
O=C(Nc1cccc(C(F)(F)F)c1)c1cc(S(=O)(=O)N2CCCCC2)ccc1N1CCOCC1,,"inconclusive [inhibitor, single point]"
O=C(COC(=O)c1ccc[nH]c1=O)NC1CCCCC1,inactive: 7.83%,
CN(CC(=O)Nc1ccc(F)cc1)C(=O)COc1ccccc1Cc1ccccc1,,"inconclusive [inhibitor, partial curve]"
CCOC(=O)c1[nH]c(C)c(C(=O)N2CCN(c3ccccc3)CC2)c1C,,"inconclusive [inhibitor, full curve]"
COc1cc(NC(=O)c2ccco2)c(OC)cc1NC(=O)Nc1cccc(Cl)c1,,"inconclusive [inhibitor, partial curve]"
O=C(Nc1ccccc1F)C1CCN(S(=O)(=O)c2cccc3nonc23)CC1,inactive: 0.513%,
Cc1cccc(Oc2cc([N+](=O)[O-])cc3c2C(=O)Nc2ccccc2O3)c1,,"inconclusive [inhibitor, partial curve, poor fit]"
CC(C)(C)c1nc(SCC(=O)Nc2ccc(N3CCOCC3)cc2)c2ccccc2n1,,"inconclusive [inhibitor, full curve, poor fit]"
Cc1ccc(NC(=O)CSc2nnc3ccc(-c4cccnc4)nn23)cc1,,"inconclusive [inhibitor, single point]"
O=C(Cn1cnc(Cl)c1Cl)c1ccc(F)cc1,,"inconclusive [inhibitor, partial curve, poor fit]"
CSc1cccc(NC(=S)N(CCN(C)C)C(C)c2ccccn2)c1 (configuration not stated),,"inconclusive [inhibitor, single point]"
COc1ccc(N2CCN(CCCNC(=O)CN3C(=O)COc4ccccc43)CC2)cc1,,"inconclusive [inhibitor, single point]"
COc1ccc(NC(=O)CN(C)C(=O)Cn2cnc3c2c(=O)n(C)c(=O)n3C)cc1,inactive: -15.9%,
O=C(/C=C/c1ccc(Br)o1)NC(c1ccccc1)c1ccccc1,,active: 11.7 µM
CCn1cc(S(=O)(=O)c2cccc(C)c2)c(=O)c2cc(F)c(N3CCN(C)CC3)cc21,,"inconclusive [inhibitor, partial curve]"
COc1ccc(CN2CCC(Cc3ccccc3)CC2)c(C)c1C,,"inconclusive [inhibitor, single point]"
Cc1nc2ccccn2c1CN(C)C(=O)C1CCC(=O)N(Cc2cccc(F)c2)C1 (configuration not stated),inactive: -10.1%,
Cc1cccc2sc(NC(=O)Cn3cccc3)nc12,inactive: 4.62%,
Cc1cc(C(=O)CCl)c(C)n1CCc1ccc(F)cc1,,"inconclusive [inhibitor, single point]"

Structure (SMILES),"activity change, negative = inhibition",Potency
COc1ccc(-c2noc(N3CCC(C(=O)Nc4ccccc4F)CC3)n2)cc1,inactive: -17.3%,
COC(CNC(=O)C1CCN(C(=O)c2cc3oc(C)cc3n2Cc2c(F)cccc2Cl)CC1)OC,,"inconclusive [inhibitor, single point]"
c1ccc(N2CCN(c3nc(-c4cccs4)nc4ccccc34)CC2)cc1,,"inconclusive [inhibitor, single point]"
CCCCc1ccc(NC(=O)CSc2nc(=O)n(CCCN3CCOCC3)c3c2CCC3)cc1,,"inconclusive [inhibitor, partial curve, poor fit]"
Cc1ccc2occ(/C=N/NC(=O)c3ccc(O)cc3)c(=O)c2c1,inactive: 10.2%,
Cc1[nH]c(=O)[nH]c(=O)c1CSc1nnc(CCCCCNC(=O)OC(C)(C)C)o1,,"inconclusive [inhibitor, single point]"
C=CCOC(=O)Nc1c(C(=O)OC)[nH]c2ccc(Cl)cc12,,"inconclusive [inhibitor, single point]"
COc1cccc(CNc2ncn[nH]2)c1OCc1ccc(F)cc1,,"inconclusive [inhibitor, partial curve, poor fit]"
CCCCCOc1ccc(C(=O)C(c2ccccc2)N2CCOCC2)cc1 (configuration not stated),,"inconclusive [inhibitor, single point]"
Cc1cc(C)n(CCC(=O)N/N=C/c2ccc(O)cc2O)n1,,"inconclusive [inhibitor, single point]"
COc1ccc(NC(=O)C2CCC(C(C)(C)C)CC2)cc1S(=O)(=O)N1CCOCC1 (configuration not stated),,"inconclusive [inhibitor, partial curve, poor fit]"
CCOc1ccc(NC(=O)c2cccnc2Cl)c([N+](=O)[O-])c1,inactive: 11.4%,
O=C(O)CC12CC3CC(C1)CC(n1ncc(N4CCC5(CC4)OCCO5)c(Cl)c1=O)(C3)C2,inactive: 2.04%,
O=C(CCCNC(=O)c1ccc(Cl)cc1)Nc1ncccc1O,,"inconclusive [inhibitor, single point]"
Cc1ccc2cc3cc(C(=O)NCCC(C)C)oc3nc2c1,,active: 10.4 µM
Cc1nc(SCC(=O)NC2(C#N)CCCC2)n(CC(C)C)c1C,,"inconclusive [inhibitor, partial curve, poor fit]"
NC(=O)C1CN(C(=O)c2nn(Cc3ccccc3)c(=O)c3ccccc23)c2ccccc2O1 (configuration not stated),,"inconclusive [inhibitor, partial curve]"
O=C(O)CS(=O)CC(=O)NCc1cccc(C(F)(F)F)c1 (configuration not stated),inactive: 12.7%,
N#Cc1c2c(c(N3CCN(CCO)CC3)n3c1nc1ccccc13)CCCC2,,active: 0.828 µM
O=C(NCc1ccccc1)c1ccc(N2CCC3(CC2)CC(c2ccc(Cl)cc2)=NO3)c([N+](=O)[O-])c1,,"inconclusive [inhibitor, partial curve, poor fit]"
COC(=O)c1ccc(Cn2nnc3c(=O)[nH]c(C4CCN(S(=O)(=O)c5cc(C)ccc5C)CC4)nc32)cc1,,"inconclusive [inhibitor, partial curve]"
